# Data as given in publication PMC4336329 (PLoS ONE, 2015).
# The campaign covered roughly 310,000 compounds. About 14,000 (4.5%) showed an effect of 50% or more. The effect is printed as a negative number. The list shows a part of the results.
# Target: human ether-à-go-go-related gene (hERG) potassium channel (human, UniProt Q12809)
# Assay: primary screen, population patch clamp on CHO cells stably expressing hERG
# 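Note: peak tail current of the secondary pulse compared with the same well before compound.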
# Sequence of human ether-à-go-go-related gene (hERG) potassium channel (Q12809 whole entry, looked up): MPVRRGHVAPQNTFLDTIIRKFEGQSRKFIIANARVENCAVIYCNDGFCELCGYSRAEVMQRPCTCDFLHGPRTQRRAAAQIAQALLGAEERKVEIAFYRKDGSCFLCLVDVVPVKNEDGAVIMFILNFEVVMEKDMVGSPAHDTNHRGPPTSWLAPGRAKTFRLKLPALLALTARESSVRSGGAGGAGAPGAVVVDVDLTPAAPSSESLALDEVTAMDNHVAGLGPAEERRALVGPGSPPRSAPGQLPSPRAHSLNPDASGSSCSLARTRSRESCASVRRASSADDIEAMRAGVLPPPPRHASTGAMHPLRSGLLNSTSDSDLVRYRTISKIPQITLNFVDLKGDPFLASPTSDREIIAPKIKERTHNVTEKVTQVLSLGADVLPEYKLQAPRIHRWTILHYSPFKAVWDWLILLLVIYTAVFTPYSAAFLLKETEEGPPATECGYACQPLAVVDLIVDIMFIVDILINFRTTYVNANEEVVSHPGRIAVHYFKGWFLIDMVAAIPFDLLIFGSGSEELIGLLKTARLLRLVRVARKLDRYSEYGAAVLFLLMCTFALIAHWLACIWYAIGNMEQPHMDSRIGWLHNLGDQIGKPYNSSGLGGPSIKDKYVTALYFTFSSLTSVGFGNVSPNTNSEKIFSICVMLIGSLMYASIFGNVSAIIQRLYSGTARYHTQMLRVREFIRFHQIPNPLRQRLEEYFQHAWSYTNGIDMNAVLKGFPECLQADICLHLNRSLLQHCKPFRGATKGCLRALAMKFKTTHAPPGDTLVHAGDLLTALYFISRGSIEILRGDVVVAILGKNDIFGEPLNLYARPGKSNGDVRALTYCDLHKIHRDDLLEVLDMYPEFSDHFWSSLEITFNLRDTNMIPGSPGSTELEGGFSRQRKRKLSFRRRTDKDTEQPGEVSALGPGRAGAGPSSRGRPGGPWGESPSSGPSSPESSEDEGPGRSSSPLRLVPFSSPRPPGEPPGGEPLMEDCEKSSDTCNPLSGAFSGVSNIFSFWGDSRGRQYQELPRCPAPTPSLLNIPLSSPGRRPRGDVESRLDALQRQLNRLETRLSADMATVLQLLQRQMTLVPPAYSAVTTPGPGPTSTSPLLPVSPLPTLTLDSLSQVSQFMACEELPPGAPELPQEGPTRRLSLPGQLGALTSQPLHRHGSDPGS
row,SMILES,"hERG current change (%, negative = inhibition) at 10uM [%]"
1,CCc1cc(=O)oc2cc(C)cc(OC(C)C(=O)NCCCN3CCCC3=O)c12 (centres unmarked),-15.1
2,CC(C)(C)NC(=O)NC(=O)CSc1nncs1,14.9
3,Cc1ccc(S(=O)(=O)N2CCOCC2)c(C)c1-n1cnnn1,-1.49
4,CCOc1ccc(CCNC(=O)COC(=O)COc2ccccc2C)cc1OCC,8.57
5,COc1ccc(Nc2nc3ccccc3nc2C)cc1,-5.18
6,CCNC(=S)N1CCc2cc(OC)c(OC)cc2C1COc1ccccc1OC (centres unmarked),10.3
7,COC(=O)c1c(NC(=O)CSc2nnnn2-c2ccc3c(c2)OCO3)sc(C)c1C,12.4
8,COc1ccc(CCNCc2ccccc2)cc1.O=C(O)C(=O)O,-23.9
9,CCOc1ccccc1NC(=O)CSc1nnc2ccc(-c3ccccn3)nn12,2.41
10,O=C(CC1C(=O)NCCN1CC1CCCCC1)NCc1cccc(F)c1F (centres unmarked),-6.94
11,Fc1ccc(NC(=S)N2CCCN(c3ccc(C(F)(F)F)cn3)CC2)c(F)c1,-25.8
12,CCCCSc1nnc(C)c(=O)[nH]1,3.25
13,COc1ccccc1C1(CC(=O)N2CCCCC2)CCOC(C(C)C)C1 (centres unmarked),-2.29
14,CC(C)(C)n1nnnc1CN1CCN2CCCC2C1 (centres unmarked),-0.605
15,CCc1c(C)sc(NC(=O)c2cccs2)c1C(N)=O,6.47
16,O=C(NC1CCCc2c1cnn2-c1ccc(F)cc1F)c1cnccn1 (centres unmarked),-5.23
17,Cc1c(C2N3CC4(C)CN2CC(C)(C3)C4=O)c2ccccc2n1C (centres unmarked),-13
18,Cc1c(N=C2N=C(NC(=O)c3cccs3)c3ccccc32)c(=O)n(-c2ccccc2)n1C,-0.696
19,Cc1ccc(C(=O)NC(NCc2ccco2)C(Cl)(Cl)Cl)cc1 (centres unmarked),-13.5
20,CSc1nc2ncc(C#N)cn2n1,19.5
21,CN1CCN(CCc2cn3ncc(C#N)c3nc2-c2ccc(F)cc2)CC1,-22.9
22,Cn1c(SCC2CCCO2)nnc1-c1cccc([N+](=O)[O-])c1 (centres unmarked),8.76

row,SMILES,"hERG current change (%, negative = inhibition) at 10uM [%]"
1,COC(=O)c1[nH]c2cccc(OC)c2c1NC(=O)CCN1CCC(C(N)=O)CC1,5.84
2,COC(=O)c1ccccc1S(=O)(=O)N(Cc1cc2ccc(OC)cc2[nH]c1=O)CC1CCCO1 (centres unmarked),-25.7
3,CCN(CCCNC(=O)C1CCCN(S(=O)(=O)c2cnc[nH]2)C1)c1ccccc1 (centres unmarked),-9.26
4,COc1cccc(-n2c(C)nnc2SCC(=O)Nc2ccccc2N2CCOCC2)c1,-42
5,CC1Oc2ccccc2C(=O)N(CC(=O)c2ccc3c(c2)OCCO3)C1=O (centres unmarked),4.12
6,Cn1ccnc1SCC(=O)NC1CCCCC1,24.1
7,Cc1onc(-c2c(Cl)cccc2Cl)c1C(=O)N1CCCc2ccccc21,-0.703
8,CCOC(=O)NC(CC(=O)O)c1ccc(OCC)cc1 (centres unmarked),3.69
9,CCOC(=O)c1cn(Cc2cccc(Cl)c2)c2cc(C)nn2c1=O,-19.9
10,O=C(c1ccc(Cl)s1)N(Cc1nnc(-c2ccccc2Cl)o1)C1CC1,-1.01
11,O=C(O)CCCN1C(=O)/C(=C\c2ccc(-c3nc4ccccc4s3)o2)SC1=S,16.5
12,CN(CC(=O)NCC(=O)Nc1ccc(F)c(F)c1F)C1CCS(=O)(=O)C1 (centres unmarked),7.88
13,COc1cccc(CNC(=O)CSc2ccc(-c3ccncc3)nn2)c1,-25.3
14,CCCCCCCc1c(O)nc(SCC(=O)O)[nH]c1=O,13.5
15,CC(NC(=O)CCCOc1ccc(Cl)cc1)c1ccccc1 (centres unmarked),-7.83
16,CC(C)c1nnc2c(N(C)S(=O)(=O)c3ccccc3)nc3ccccc3n12,-23.8
17,CCOC(=O)c1sc(N2C(=O)C(O)=C(C(=O)c3ccco3)C2c2ccc([N+](=O)[O-])cc2)nc1C (centres unmarked),9.53
18,CCC(OC(=O)c1cccs1)C(=O)NCc1ccc(C)cc1 (centres unmarked),17.7
19,Cc1nnc(NC(=O)c2cccc(NC(=O)C(C)C)c2)s1,12.1
20,COc1cccc(NC(=O)[C@@H]2CCCN2S(=O)(=O)c2cccc3cccnc23)c1,-5.87
21,Cc1ccc(C(=O)Nc2cc(Cl)ccc2-n2cncn2)s1,-19
22,O=C(OCc1c(F)cccc1Cl)c1cccnc1Cl,-0.507

row,SMILES,"hERG current change (%, negative = inhibition) at 10uM [%]"
1,Fc1ccccc1CSc1nncn1NCc1cccs1,4.51
2,Cc1ccc(CNC(=O)C2C3C=CC4(CN(Cc5cccnc5)C(=O)C24)O3)cc1 (centres unmarked),0.287
3,COc1ccc(NC(=S)N(CCc2nc3cc(C)c(C)cc3[nH]2)Cc2cccnc2)cc1,3.69
4,Cc1cccc2c1NC(=O)C2=Nc1ccc(Cl)cc1,5.73
5,COc1ccccc1C(=O)N1CCCN(C(=O)c2ccccc2OC)CC1,18.7
6,CCOCc1c(C(=O)NC2CCCCCC2)oc2ccccc12,8.56
7,COc1ccc(S(=O)(=O)Nc2c(C)n(C)n(-c3ccccc3)c2=O)c(Cl)c1Cl,-37
8,COc1ccc(-c2c[n+]3c(n2-c2ccccc2)CCCCC3)cc1.[Br-],-18.6
9,CCN(CC)C(=O)C1CCN(Cc2cn(C)nc2-c2ccc(Oc3ccccc3)cc2)CC1,-46.9
10,Cn1cccc1/C=C1/SC(=S)N(CC(=O)O)C1=O,8.14
11,COc1ccc(C(=O)Nc2cccc(-c3ccc4nncn4n3)c2)cc1,-0.753
12,COc1cc(NC(=O)CCN2CCN(C/C=C/c3ccccc3)CC2)cc(OC)c1,-69.3
13,CCC(=NCCO)c1c(O)n(C2CCCCC2)c(=O)[nH]c1=O,-14.6
14,Cc1ccc(NC(=S)N2CCN(C(=O)C3CCCO3)CC2)c(C)c1 (centres unmarked),-9.39
15,COc1ccc(C(=O)Nc2cccc(N(C)S(C)(=O)=O)c2)cc1OC,0.733
16,Cc1cc(NC(=O)COC(=O)C2CC(=O)N(c3ccc(Cl)cc3)C2)no1 (centres unmarked),-12.2
17,COc1ccc(-c2nc(N)n(C(=O)c3ccc(C)cc3)n2)cc1,6.84
18,CCc1nnc(NC(=O)COc2ccc3ccccc3c2)s1,19.9
19,CC(C)C[C@H](NC(=O)[C@H](Cc1ccccc1)n1c(=O)[nH]c2ccccc2c1=O)C(=O)N1CCC(C(=O)O)CC1,3.82
20,CCN(CC(=O)Nc1ccc(OC)cc1)C(=O)c1ccc2[nH]c3c(c2c1)CC(C)CC3 (centres unmarked),-11.3
21,Cc1ccc(-c2csc3ncnc(SCc4ccc(C(=O)O)cc4)c23)cc1,6.68
22,c1cncc(-c2cn(C[C@H]3CC[C@@H]([C@@H]4CC[C@H](Cn5cc(-c6cccnc6)nn5)O4)O3)nn2)c1,-58.5

row,SMILES,"hERG current change (%, negative = inhibition) at 10uM [%]"
1,COc1ccccc1C(=O)Oc1cc(N)n(S(=O)(=O)c2ccccc2)n1,8.72
2,N#Cc1c(-c2ccccc2)cc(-c2ccccc2)nc1SCc1nnc(-c2ccccc2)o1,10.8
3,O=C(O)CC1(CC(=O)Nc2ccc3ccccc3n2)CCCCC1,14.6
4,CCOC(=O)N1CCN(S(=O)(=O)c2c(C)cc(C)cc2C)CC1,-5.61
5,CC1CC(C)CN(Cc2nc3c(c(=O)n(C)c(=O)n3C)n2CCN2CCOCC2)C1 (centres unmarked),-4.59
6,CCc1nc2c(c(=O)c3ccccc3n2C)c(=O)n1-c1ccc(F)cc1,-8.56
7,COCCN(C(=O)CCC(=O)Nc1nccs1)C(C(=O)NCCC(C)C)c1ccc(F)cc1 (centres unmarked),-14.4
8,Cc1ccc(Nc2ccc(C(=O)O)cc2[N+](=O)[O-])cc1,15.1
9,C=CCn1c(SCCN2C(=O)c3ccccc3C2=O)nc2scc(-c3ccccc3)c2c1=O,-0.665
10,CC(C)(C)OC(=O)N1CCC(c2c(C(=O)N3CCN(C(=O)c4ccco4)CC3)cnn2-c2ccc(F)cc2F)CC1,-19.6
11,O=C(CSc1ccc([N+](=O)[O-])cn1)Nc1ccc2[nH]c(=O)[nH]c2c1,11.8
12,COc1cccc(-c2nnn(CC(=O)N(CC(C)C)C3CCS(=O)(=O)C3)n2)c1 (centres unmarked),-1.26
13,O=C(CCc1nnc2n(Cc3ccc(F)cc3)c(=O)c3ccccc3n12)N1CCN(c2ccccn2)CC1,-79.2
14,CCOC(=O)c1c(C)[nH]c(C)c1S(=O)(=O)N(C)CC(=O)Nc1ccc(C)cn1,-1.35
15,Cc1csc(=O)n1CCC(=O)OCC(=O)c1c(N)n(CC(C)C)c(=O)n(C)c1=O,-26.2
16,O=C(NCCCN1CCCC1)c1ccc(Cn2c(=S)[nH]c3ccc(Br)cc3c2=O)cc1,-14.5
17,CC1C(c2ccccc2)=NNc2nc3c(c(=O)n(C)c(=O)n3C)n21 (centres unmarked),3.99
18,CC1=C(C(=O)OCC(C)C)C(c2ccc(Br)s2)NC(=O)N1 (centres unmarked),7.07
19,C=CC[N+](C)(C)c1ccc(CCC(=O)CCc2ccc([N+](C)(C)CC=C)cc2)cc1.[Br-],0.803
20,CCOc1ccccc1-c1nc(-c2ccc(NC(=O)Cc3ccccc3OC)cc2)no1,17.4
